Experimental data taken from PubChem BioAssay AID540317 (National Center for Advancing Translational Sciences (NCATS), 2011).
The whole screen tested about 390,000 compounds, of which about 2,200 (0.56%) were called active. The shares of active, inactive and inconclusive entries below differ from those in the screen. The call rests on the fitted dose curve; in most records, active means well fitted inhibition curve with a large enough effect; inconclusive means small, poorly fitted or top-dose-only effect; inactive means no such curve, though single readings can be large or run the other way. Where the call is inconclusive, the potency comes from a doubtful curve fit.
Further: nearly all actives have a fitted effect of over 70% in size.
Potency means the concentration at half of the fitted maximal effect; tags describe the fitted curve by direction and shape.

Each compound was assayed against Chromobox protein homolog 1 (Homo sapiens) (UniProt P83916) (assay: HTS for Inhibitors of HP1-beta Chromodomain Interactions with Methylated Histone Tails). Conditions: AlphaScreen HP1-beta / biotin-H3K9me3 peptide binding; series mostly up to 114 µM; activity change, negative = inhibition: at the top concentration.
Sequence of UniProt P83916 (P83916 whole entry, looked up): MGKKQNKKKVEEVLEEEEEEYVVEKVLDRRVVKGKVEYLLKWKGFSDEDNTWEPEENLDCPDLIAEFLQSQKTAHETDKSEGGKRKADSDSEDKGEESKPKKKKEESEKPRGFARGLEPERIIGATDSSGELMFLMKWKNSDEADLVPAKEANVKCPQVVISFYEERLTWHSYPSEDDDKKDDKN
Outline: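 HP1-beta protein (50 nM final) preincubated 30 min at room temperature with biotinylated H3(1-18)K9me3 peptide (50 nM) in PBS pH 7.4, 0.01% Tween-20, then compound added for 30 min. AlphaScreen streptavidin donor/nickel chelate acceptor beads (10 ug/mL final), 30 min dark, luminescence read.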
In the case of Cn1cc(C(=O)NC2C3CC4CC(C3)CC2C4)cn1 (stereo not drawn), the Potency is reported as inconclusive: 28.2 µM [inhibitor, single point].
For CCCCC(CC)CNCc1cccn1CCN1CCOCC1 (stereo not drawn), the Potency was inconclusive: 12.6 µM [inhibitor, partial curve, poor fit].
With CN(C(=S)Nc1cccnc1)c1ccc(O)cc1 the Potency was inconclusive: 79.4 µM [inhibitor, single point].
In the case of CC(=O)Nc1nc(C)c(CCC2OCCO2)c(=O)[nH]1, the “activity change, negative = inhibition” value is reported as inactive: 24.5%.
Cc1cccc(NC(=O)CSc2nncn2-c2ccccn2)c1 was tested, and the Potency was inconclusive: 89.1 µM [inhibitor, single point].
For Cc1cccc(-c2nn3c(=O)cc(CN4CCN(C(=O)/C=C/c5ccccc5)CC4)nc3s2)c1, the “activity change, negative = inhibition” value was inactive: 16.4% [at 57 µM].
For O=C(O)C1CCCCC1C(=O)Nc1ccc2c(c1)OCCO2 (stereo not drawn), the “activity change, negative = inhibition” value was inactive: 16.5%.
O=C(c1ccccc1F)N1CCN(C2CCC(c3ccccc3)CC2)CC1 (stereo not drawn) was tested, and the Potency was inconclusive: 25.1 µM [inhibitor, full curve].
CC1=NN(Cc2ccccc2)C(=O)/C1=C/c1ccc(N(C)C)cc1 was tested, and the Potency was inconclusive: 12.6 µM [inhibitor, partial curve, poor fit].
With O=C(Nc1cccc(S(=O)(=O)Nc2ccccc2F)c1)c1ccc2ccccc2n1 the Potency was inconclusive: 3.55 µM [inhibitor, full curve].
With CN(C)c1ccc(C2CC(c3cccc(NS(C)(=O)=O)c3)=NN2C(=O)c2ccccc2)cc1 (stereo not drawn) the Potency was inconclusive: 44.7 µM [inhibitor, partial curve].
In the case of O=C(CCCc1c[nH]c2ccccc12)NCc1ccccc1C(F)(F)F, the “activity change, negative = inhibition” value is reported as inactive: 3.98%.
In the case of CCc1cnc2c(c1SCC(=O)NCc1ccccc1Cl)c(=O)n(C)c(=O)n2C, the Potency is reported as inconclusive: 89.1 µM [inhibitor, single point].
With OCCC1CCCCN1CC(O)COCc1ccc(Cl)cc1 (stereo not drawn) the Potency was inconclusive: 79.4 µM [inhibitor, partial curve, poor fit].
CCOC(=O)c1cc(-c2ccc(OC)cc2)nc2c1c(C)nn2CCC(N)=S was tested, and the Potency was inconclusive: 39.8 µM [inhibitor, partial curve, poor fit].
For c1ccc(OCCOCCN2CCN(C(c3ccccc3)c3ccccc3)CC2)cc1, the Potency was inconclusive: 28.2 µM [inhibitor, partial curve].
COc1ccc2[nH]c(C)c(CCN(Cc3cccs3)C(=S)Nc3ccccc3)c2c1 was tested, and the Potency was inconclusive: 25.1 µM [inhibitor, partial curve, poor fit].
For NC(=O)C1(N2CCCCC2)CCN(c2nc(-c3ccccc3)cs2)CC1, the Potency was inconclusive: 79.4 µM [inhibitor, single point].
